Data: patent US20080280910A1, “PHTHALAZINONE DERIVATIVES” (priority 2007, published 2008)

Molecular target: Mammalian PARP, isolated from Hela cell nuclear extract (Homo sapiens, UniProt P09874)
Experiment: PARP inhibition assay (FlashPlate, 3H-NAD incorporation) to determine IC50
Format: biochemical
Conditions: mean IC50
Procedure: In order to assess the inhibitory action of the compounds, the following assay was used to determine IC50 values (Dillon, et al., JBS., 8(3), 347-352 (2003)).
All compounds were diluted in DMSO and gave final assay concentrations of between 10 and 0.01 μM, with the DMSO being at a final concentration of 1% per well. The total assay volume per well was 40 μL.
After 10 minutes incubation at 30° C. the reactions were initiated by the addition of a 10 μl reaction mixture, containing NAD (5 μM), ^3H-NAD and 30mer double stranded DNA-oligos. Designated positive and negative reaction wells were done in combination with compound wells (unknowns) in order to calculate % enzyme activities. The plates were then shaken for 2 minutes and incubated at 30° C. for 45 minutes.
Following the incubation, the reactions were quenched by the addition of 50 μl 30% acetic acid to each well. The plates were then shaken for 1 hour at room temperature.
The plates were transferred to a TopCount NXT (TRADE MARK) (Packard, UK) for scintillation counting. Values recorded are counts per minute (cpm) following a 30 second counting of each well.
The % enzyme activity for each compound is then calculated using the following equation: […]
IC50 values (the concentration at which 50% of the enzyme activity is inhibited) were calculated, which are determined over a range of different concentrations, normally from 10 μM down to 0.001 μM. Such IC50 values are used as comparative values to identify increased compound potencies.

For `O=C(CCN1CCCCC1)Nc1cccc(-c2cc(Cc3n[nH]c(=O)c4ccccc34)ccc2F)c1` [Compound 142], the IC50 was 97 nM.

Work on `CC(Oc1ccccc1)C(=O)Nc1cccc(-c2cc(Cc3n[nH]c(=O)c4ccccc34)ccc2F)c1` (stereo not drawn) [Compound 143] yielded an IC50 of 117 nM.

With `O=C(Cc1ccncc1)Nc1cccc(-c2cc(Cc3n[nH]c(=O)c4ccccc34)ccc2F)c1` [Compound 144] the IC50 was 9 nM.

`O=C(Cn1ccc2ccccc21)Nc1cccc(-c2cc(Cc3n[nH]c(=O)c4ccccc34)ccc2F)c1` [Compound 145] showed an IC50 of 31 nM.

With `O=C(Nc1cccc(-c2cc(Cc3n[nH]c(=O)c4ccccc34)ccc2F)c1)C1CCc2ccccc2O1` (stereo not drawn) [Compound 146] the IC50 was 81 nM.

`O=c1[nH]nc(Cc2ccc(F)c(-c3cccc(NS(=O)(=O)c4ccccc4)c3)c2)c2ccccc12` [Compound 147] gave an IC50 of 53 nM.

Molecule `O=c1[nH]nc(Cc2ccc(F)c(-c3cccc(NS(=O)(=O)c4ccc(Cl)cc4)c3)c2)c2ccccc12` [Compound 148] has an IC50 of 76 nM.

In the case of `Cc1noc(C)c1S(=O)(=O)Nc1cccc(-c2cc(Cc3n[nH]c(=O)c4ccccc34)ccc2F)c1` [Compound 149], the IC50 is reported as 27 nM.

`O=c1[nH]nc(Cc2ccc(F)c(-c3cccc(NS(=O)(=O)c4ccc(F)cc4)c3)c2)c2ccccc12` [Compound 150] gave an IC50 of 71 nM.

`O=c1[nH]nc(Cc2ccc(F)c(-c3cccc(NS(=O)(=O)c4cccc5nonc45)c3)c2)c2ccccc12` [Compound 151] gave an IC50 of 36 nM.

In the case of `CCCCS(=O)(=O)Nc1cccc(-c2cc(Cc3n[nH]c(=O)c4ccccc34)ccc2F)c1` [Compound 152], the IC50 is reported as 19 nM.

Molecule `CCS(=O)(=O)Nc1cccc(-c2cc(Cc3n[nH]c(=O)c4ccccc34)ccc2F)c1` [Compound 153] has an IC50 of 14 nM.

`N#Cc1ccc(S(=O)(=O)Nc2cccc(-c3cc(Cc4n[nH]c(=O)c5ccccc45)ccc3F)c2)cc1` [Compound 154] was tested, and the IC50 was 22 nM.

`Cc1nc(C)c(S(=O)(=O)Nc2cccc(-c3cc(Cc4n[nH]c(=O)c5ccccc45)ccc3F)c2)s1` [Compound 155] gave an IC50 of 38 nM.

Molecule `O=c1[nH]nc(Cc2ccc(F)c(-c3cccc(NS(=O)(=O)c4cccs4)c3)c2)c2ccccc12` [Compound 156] has an IC50 of 41 nM.

With `O=c1[nH]nc(Cc2ccc(F)c(-c3cccc(NS(=O)(=O)c4ccc(Cl)s4)c3)c2)c2ccccc12` [Compound 158] the IC50 was 123 nM.

In the case of `Cc1oncc1S(=O)(=O)Nc1cccc(-c2cc(Cc3n[nH]c(=O)c4ccccc34)ccc2F)c1` [Compound 159], the IC50 is reported as 35 nM.

`O=C(Nc1cccc(-c2cc(Cc3n[nH]c(=O)c4ccccc34)ccc2F)c1)Nc1ccccc1F` [Compound 160] gave an IC50 of 9 nM.

`N#Cc1cccc(NC(=O)Nc2cccc(-c3cc(Cc4n[nH]c(=O)c5ccccc45)ccc3F)c2)c1` [Compound 161] gave an IC50 of 23 nM.

`O=C(Nc1cccc(-c2cc(Cc3n[nH]c(=O)c4ccccc34)ccc2F)c1)NC1CCCCC1` [Compound 162] was tested, and the IC50 was 88 nM.

For `O=C(Nc1cccc(-c2cc(Cc3n[nH]c(=O)c4ccccc34)ccc2F)c1)NC1CC1c1ccccc1` (stereo not drawn) [Compound 163], the IC50 was 102 nM.

With `O=c1[nH]nc(Cc2ccc(-c3ccco3)cc2)c2ccccc12` [Compound 164] the IC50 was 393 nM.

With `Nc1cccc(-c2ccc(Cc3n[nH]c(=O)c4ccccc34)cc2)c1` [Compound 165] the IC50 was 1520 nM.

`O=C(O)c1cccc(-c2ccc(Cc3n[nH]c(=O)c4ccccc34)cc2)c1` [Compound 166] was tested, and the IC50 was 1180 nM.

Molecule `O=c1[nH]nc(Cc2ccc(-c3cccc(O)c3)cc2)c2ccccc12` [Compound 167] has an IC50 of 624 nM.

Molecule `O=c1[nH]nc(Cc2ccc(-c3ccnc(Cl)c3)cc2)c2ccccc12` [Compound 168] has an IC50 of 379 nM.

In the case of `O=C(c1cccc(-c2ccc(Cc3n[nH]c(=O)c4ccccc34)cc2)c1)N1CCSCC1` [Compound 170], the IC50 is reported as 1890 nM.

For `O=C(c1cccc(-c2ccc(Cc3n[nH]c(=O)c4ccccc34)cc2)c1)N1CCCC1` [Compound 171], the IC50 was 1990 nM.

Work on `O=C(NCc1ccco1)c1cccc(-c2ccc(Cc3n[nH]c(=O)c4ccccc34)cc2)c1` [Compound 173] yielded an IC50 of 788 nM.

With `O=c1[nH]nc(Cc2ccc(-c3ccoc3)cc2)c2ccccc12` [Compound 174] the IC50 was 309 nM.

`O=C(Nc1ccc(-c2cc(Cc3n[nH]c(=O)c4ccccc34)ccc2F)cc1)C1CC1` [Compound 175] was tested, and the IC50 was 57 nM.

`CN(C)CC(=O)Nc1ccc(-c2cc(Cc3n[nH]c(=O)c4ccccc34)ccc2F)cc1` [Compound 176] gave an IC50 of 736 nM.

Work on `O=C(Nc1ccc(-c2cc(Cc3n[nH]c(=O)c4ccccc34)ccc2F)cc1)c1ccco1` [Compound 177] yielded an IC50 of 162 nM.

With `O=C(Nc1ccc(-c2cc(Cc3n[nH]c(=O)c4ccccc34)ccc2F)cc1)c1ccno1` [Compound 178] the IC50 was 196 nM.

Molecule `O=C(Nc1ccc(-c2cc(Cc3n[nH]c(=O)c4ccccc34)ccc2F)cc1)c1ccccc1` [Compound 179] has an IC50 of 171 nM.

`O=C(Nc1ccc(-c2cc(Cc3n[nH]c(=O)c4ccccc34)ccc2F)cc1)c1ccncc1` [Compound 180] gave an IC50 of 88 nM.

With `O=C(Nc1ccc(-c2cc(Cc3n[nH]c(=O)c4ccccc34)ccc2F)cc1)c1cncnc1` [Compound 181] the IC50 was 78 nM.

`Cn1nccc1C(=O)Nc1ccc(-c2cc(Cc3n[nH]c(=O)c4ccccc34)ccc2F)cc1` [Compound 182] showed an IC50 of 218 nM.

In the case of `O=C(Nc1ccc(-c2cc(Cc3n[nH]c(=O)c4ccccc34)ccc2F)cc1)c1cccs1` [Compound 184], the IC50 is reported as 155 nM.

In the case of `O=C(Cc1ccccc1)Nc1ccc(-c2cc(Cc3n[nH]c(=O)c4ccccc34)ccc2F)cc1` [Compound 185], the IC50 is reported as 54 nM.

For `Cc1cc(C(=O)Nc2ccc(-c3cc(Cc4n[nH]c(=O)c5ccccc45)ccc3F)cc2)n(C)n1` [Compound 187], the IC50 was 285 nM.

`O=C(Cc1cccs1)Nc1ccc(-c2cc(Cc3n[nH]c(=O)c4ccccc34)ccc2F)cc1` [Compound 188] showed an IC50 of 31 nM.

In the case of `CN1CCC(C(=O)Nc2ccc(-c3cc(Cc4n[nH]c(=O)c5ccccc45)ccc3F)cc2)CC1` [Compound 189], the IC50 is reported as 554 nM.

In the case of `CCCCCC(C)C(=O)Nc1ccc(-c2cc(Cc3n[nH]c(=O)c4ccccc34)ccc2F)cc1` (stereo not drawn) [Compound 190], the IC50 is reported as 277 nM.

For `N#Cc1cccc(C(=O)Nc2ccc(-c3cc(Cc4n[nH]c(=O)c5ccccc45)ccc3F)cc2)c1` [Compound 191], the IC50 was 211 nM.

In the case of `O=C(CCc1ccccc1)Nc1ccc(-c2cc(Cc3n[nH]c(=O)c4ccccc34)ccc2F)cc1` [Compound 192], the IC50 is reported as 85 nM.

For `C[C@@H](CC(=O)Nc1ccc(-c2cc(Cc3n[nH]c(=O)c4ccccc34)ccc2F)cc1)c1ccccc1` [Compound 193], the IC50 was 237 nM.

`Cc1cccc(CCC(=O)Nc2ccc(-c3cc(Cc4n[nH]c(=O)c5ccccc45)ccc3F)cc2)c1` [Compound 194] was tested, and the IC50 was 190 nM.

In the case of `CN(C)c1cccc(C(=O)Nc2ccc(-c3cc(Cc4n[nH]c(=O)c5ccccc45)ccc3F)cc2)c1` [Compound 195], the IC50 is reported as 169 nM.

`O=C(Cc1ccncc1)Nc1ccc(-c2cc(Cc3n[nH]c(=O)c4ccccc34)ccc2F)cc1` [Compound 196] gave an IC50 of 119 nM.

Work on `O=C(Nc1ccc(-c2cc(Cc3n[nH]c(=O)c4ccccc34)ccc2F)cc1)Nc1ccccc1F` [Compound 197] yielded an IC50 of 120 nM.

Work on `O=C(Nc1ccc(-c2cc(Cc3n[nH]c(=O)c4ccccc34)ccc2F)cc1)NC1CCCCC1` [Compound 198] yielded an IC50 of 36 nM.

Work on `O=C(Nc1ccc(-c2cc(Cc3n[nH]c(=O)c4ccccc34)ccc2F)cc1)NC1CC1c1ccccc1` (stereo not drawn) [Compound 199] yielded an IC50 of 41 nM.

With `O=C(Nc1ccc(-c2cc(Cc3n[nH]c(=O)c4ccccc34)ccc2F)cc1)Nc1ccc2c(c1)OCCO2` [Compound 200] the IC50 was 112 nM.
